Results published in the RNAGym collection of RNA variant scans (doi:10.7554/elife.90254).
The source gives no read counts; variants with many changes may rest on few reads.

B1: LINE1-mini (parent)
chain: GGCAGAGCUCAACACAGCGUGGCAAAGUGGCUGUGGCUAGACUGCC

Variants of: B1
Assay: self-cleavage, relative activity (ratio to wild type); higher = more cleavage; in vitro, sequencing; the parent is a self-cleaving ribozyme
Variant C3A C15A G36C A41G C45A has a self-cleavage of 0.1.
With G2U G30U A41U the self-cleavage was 0.11.
G5U C13G G17A C42A gave a self-cleavage of 0.01.
G17U A26U G40A showed a self-cleavage of 0.01.
C15G G22C G27C G33U U34G G44A gave a self-cleavage of 0.01.
Variant C15U G19C G30U G33C has a self-cleavage of 0.11.
Work on G22U C37G C46U yielded a self-cleavage of 0.01.
G19U U28G U32A showed a self-cleavage of 0.2.
Variant G21U A26U G40U has a self-cleavage of 0.2.
With C8G C15G U28A U32C A39U G40U G44A the self-cleavage was 0.06.
With A6G U34G C42U the self-cleavage was 0.
A4C C8U U20C U28C G35U gave a self-cleavage of 0.12.
Variant C10A U32A C42A has a self-cleavage of 0.03.
In the case of A14G A16U G22A C42G, the self-cleavage is reported as 0.01.
Variant U28A G29C G33U has a self-cleavage of 0.03.
In the case of G5A C18G G22A G40C, the self-cleavage is reported as 0.01.
With C8A U9G G27U the self-cleavage was 0.01.
C13U G27A A39U showed a self-cleavage of 0.09.
For G1A A14U A16U C37A, the self-cleavage was 0.09.
Variant C10G A25U C45A has a self-cleavage of 0.05.
Work on C13A A16U G19A C23U yielded a self-cleavage of 0.13.
Variant G5C G27A G36U A41C C46A has a self-cleavage of 0.08.
Work on G1C C13A G27A C42A yielded a self-cleavage of 0.02.
For A6C C13G G17A C23G A39G G44U, the self-cleavage was 0.02.
For A6C C8A G19C, the self-cleavage was 0.13.
For C3A C13U U32C, the self-cleavage was 0.17.
Work on A4G A25C C31G yielded a self-cleavage of 0.13.
With G7C A14G G27U G36U G44C the self-cleavage was 0.02.
Variant C23A U32G C37U G44C has a self-cleavage of 0.05.
In the case of A6G A11G G19C, the self-cleavage is reported as 0.02.
C15A G19C G21U showed a self-cleavage of 0.22.
A25G G29U G36U gave a self-cleavage of 0.01.
In the case of C8U G19A G21C, the self-cleavage is reported as 0.01.
Work on A6G C18U U38C A41C C45U yielded a self-cleavage of 0.05.
For A14C U38C C45G, the self-cleavage was 0.26.
For C13G G22A G29A A39C, the self-cleavage was 0.52.
G5U C13U A14U gave a self-cleavage of 0.01.
With G2U C8G G22U G27A the self-cleavage was 0.02.
Variant C13U C18A G40A A41U has a self-cleavage of 0.01.
Work on U9G U32A A41U C46U yielded a self-cleavage of 0.01.
Work on A24C G29A U38C yielded a self-cleavage of 1.54.
For A4C U9G G44U, the self-cleavage was 0.03.
A11C G21U G27A U43G showed a self-cleavage of 0.
With U9A A11C C23U the self-cleavage was 0.02.
G1A C3A C10A C37U showed a self-cleavage of 0.78.
Variant G5U G17U G33U A41C C45G has a self-cleavage of 0.02.
In the case of C23U U38G G44U, the self-cleavage is reported as 0.
In the case of C3G C15A G36A G40A, the self-cleavage is reported as 0.06.
A6U C10U G19A U20A U38A U43A showed a self-cleavage of 0.
With G1C C3U C15G the self-cleavage was 0.05.
In the case of A4U C8A G19U, the self-cleavage is reported as 0.11.
G29U G35A U43G gave a self-cleavage of 0.
A14U G21A G22U A25C gave a self-cleavage of 0.2.
A16G A24U G30C C46A gave a self-cleavage of 0.19.
With A14U U20C C37U the self-cleavage was 0.02.
Variant A4G C10G G40C C42G has a self-cleavage of 0.01.
Work on C15U C23U G30C G33A G36A yielded a self-cleavage of 0.07.
For C10A G40A G44A, the self-cleavage was 0.03.
In the case of G1U G7C A14G A39G U43C, the self-cleavage is reported as 0.03.
U9A G17A C37U gave a self-cleavage of 0.03.
A4C A14C G21U A25U U32G showed a self-cleavage of 0.2.
With C3G A4U G7A G40U the self-cleavage was 0.3.
A6U U20G A26C gave a self-cleavage of 0.46.
With U20G U28G U43C the self-cleavage was 0.04.
Work on A12C C15A G33U yielded a self-cleavage of 0.02.
With G1U C3A C23A the self-cleavage was 0.8.
In the case of C18A G22U A24U A41U, the self-cleavage is reported as 0.14.
Variant C3U U9A G35A C45U has a self-cleavage of 0.13.
For U9G A14U U28A, the self-cleavage was 0.03.
A4G C18A G19U showed a self-cleavage of 1.06.
Work on U9G C10U G22U C37U yielded a self-cleavage of 0.
For C10A A11C A26G, the self-cleavage was 0.01.
With G1A A4C G17C C18G the self-cleavage was 0.09.
C10A C18G A39C gave a self-cleavage of 0.01.
G1C C3U A26G A41G showed a self-cleavage of 0.08.
For A4G G27U C31G C37U, the self-cleavage was 0.07.
In the case of C10A C37G G44A, the self-cleavage is reported as 0.02.
For A6C U20A G22U, the self-cleavage was 1.14.
C15U G22C A25C gave a self-cleavage of 0.05.
For G7C G17U G19U G30U U38C G40A, the self-cleavage was 0.02.
For G1A G7C C13U, the self-cleavage was 0.65.
Work on A26C G35U G40U yielded a self-cleavage of 0.05.
G7U A16U G19C U28C showed a self-cleavage of 0.08.
Variant C10A G33U A41G has a self-cleavage of 0.05.
Variant G5U C10A G17C G36A has a self-cleavage of 0.01.
With G7A A16U A25G the self-cleavage was 0.23.
U9G C15U G35U showed a self-cleavage of 0.06.
G7A C18G G27A C42G gave a self-cleavage of 0.02.
Work on G2U G5U C13A G33C U43G yielded a self-cleavage of 0.
Variant U20C C23U A26U C31U has a self-cleavage of 0.14.
With C8U G21C C37G U38C G44U the self-cleavage was 0.01.
With G2A G17A U43C the self-cleavage was 0.09.
For C3G U9A C18A, the self-cleavage was 0.13.
With G2A U43A C46A the self-cleavage was 0.09.
Variant U20C G33U G40A C45A has a self-cleavage of 0.03.
With A12G C23G A26U G29A U32G U34G the self-cleavage was 0.01.
G1U C3U A4C A11U G21C A24G showed a self-cleavage of 0.02.
Variant C23G G33U C42G has a self-cleavage of 0.11.
With C8U C10A G22A G44A C46A the self-cleavage was 0.
For C13A C23U G44U, the self-cleavage was 0.01.
In the case of A12C C23G A26C, the self-cleavage is reported as 0.01.
Work on A16C C18A U20A A25C U28A U32A U43A yielded a self-cleavage of 0.
A16C G29A G30A gave a self-cleavage of 0.05.
C13A G22U G35U C42U gave a self-cleavage of 1.95.
Variant C15U G19A G35C has a self-cleavage of 0.06.
G29C U32C G40A G44C gave a self-cleavage of 0.05.
G2C A6C U34G gave a self-cleavage of 0.13.
Work on A16U C37U G44A yielded a self-cleavage of 0.01.
Work on G1C A14U U32G yielded a self-cleavage of 0.01.
Variant A11C A14C A16U has a self-cleavage of 0.02.
G5A A25G G35C showed a self-cleavage of 0.06.
A6C G21C G29U A39U G40U C42G showed a self-cleavage of 0.01.
For A11G A12C G17U C18G G40A, the self-cleavage was 0.01.
With C10A G19U A25C G30A the self-cleavage was 0.04.
Work on G5U G27U G35A G36C G44A yielded a self-cleavage of 0.03.
G17A A24U C31A gave a self-cleavage of 0.02.
C8G G19C G36A gave a self-cleavage of 0.07.
C18G G27C G30U gave a self-cleavage of 1.19.
With A6C A11C A14U G36C the self-cleavage was 0.02.
Work on G17A G21A C37U yielded a self-cleavage of 0.1.
Work on A24G A25U C37U yielded a self-cleavage of 0.05.
G1U U20C A24G G27U C31A U38A gave a self-cleavage of 0.03.
For A12U C15U A26U C31A C42A, the self-cleavage was 0.01.
With C3G G21C C31G the self-cleavage was 0.06.
With A14U G19C G33C the self-cleavage was 0.05.
In the case of G2A G21A G30A G33C, the self-cleavage is reported as 0.02.
U9C A16G G40C gave a self-cleavage of 0.01.
C10U A11C C13G U20A G21C gave a self-cleavage of 0.02.
A16U G27C U43A showed a self-cleavage of 0.01.
G7A G21A A26G C37G G44C gave a self-cleavage of 0.05.
Work on C10A C13U C37G yielded a self-cleavage of 0.
In the case of G7A C10A G17U C18U, the self-cleavage is reported as 0.01.
Variant A11U C18U G19U G22U U43C has a self-cleavage of 0.
Variant G2C C15G A24U A25U A26C G27A has a self-cleavage of 0.01.
Variant A12U G19C G22U C31G has a self-cleavage of 0.03.
Work on G2A C18A C31U G35C yielded a self-cleavage of 0.04.
Work on C23G A24C G30U yielded a self-cleavage of 0.29.
For C15U U32G U34C U38A, the self-cleavage was 0.03.
In the case of G29A C31U A39U G40U C46U, the self-cleavage is reported as 0.03.
Work on A16U G19U G27C C42U yielded a self-cleavage of 0.1.
G7U G17C A41C gave a self-cleavage of 0.06.
Work on U34G A39U G40C yielded a self-cleavage of 0.06.
For C10G C13G A24U G27C C31G G35U, the self-cleavage was 0.02.
In the case of C8U U20C G33U, the self-cleavage is reported as 0.08.
C3A A4U C15A G29U G44C gave a self-cleavage of 0.24.
C3A C10A G19A A24C G27C gave a self-cleavage of 0.01.
In the case of U32A C37G A41C, the self-cleavage is reported as 0.02.
Work on G19U C23U U28A G30A C37A yielded a self-cleavage of 0.01.
With C3A A12U C23A A41G the self-cleavage was 0.5.
In the case of G19C G21U G22U C37U G44C, the self-cleavage is reported as 0.02.
With G30A C42A C46A the self-cleavage was 0.11.
U9A A12U C46A showed a self-cleavage of 0.27.
G1C G2C G35U A41G showed a self-cleavage of 0.05.
G5C C10U C15A G19A A41C C45U gave a self-cleavage of 0.01.
With G1U G30U C31U C46A the self-cleavage was 0.04.
Work on C31A A41G C42A C45U yielded a self-cleavage of 0.02.
Variant C13A C15U A16G G30U C46A has a self-cleavage of 0.15.
In the case of C3G C18A C45G, the self-cleavage is reported as 0.1.
Work on G5A C18A G19A A24C C45U yielded a self-cleavage of 0.03.
With G2A G5A C15U the self-cleavage was 1.76.
For C13U G30C G35C, the self-cleavage was 0.14.
G2U C37U C42G U43A showed a self-cleavage of 0.
Work on C23G G29U G35A yielded a self-cleavage of 0.09.
With C8G G40U C42U the self-cleavage was 0.1.
With A16C A24U G40C the self-cleavage was 0.02.
U9G A14U G27C U28A G35C showed a self-cleavage of 0.01.
For U9C A25C G29A G35A, the self-cleavage was 0.02.
